According to PMC9911399, “Two distinct binding modes provide the RNA-binding protein RbFox with extraordinary sequence specificity”:
Numbering of substitutions follows the chain as printed; changes in the protein carry UniProt numbers. This is one part of the list.

T1: RBFOX1 RRM RbFoxmut (Fox-RRM*) (Homo sapiens, UniProt Q9NWB1 109-208, R118D;E147R;N151S;E152T)
T1 sequence: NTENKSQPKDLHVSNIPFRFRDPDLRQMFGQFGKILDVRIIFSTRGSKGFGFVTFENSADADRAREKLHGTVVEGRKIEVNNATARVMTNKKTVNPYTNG

B1: UUCGCCG (DNA:RNA)
RNA: GGGAGACCGGAAUUCAGAUUGUCCUUCGCCGUUAAAUCCCGUCGUAGCCACCA
DNA 1: CAATCTGAATTCCGGTCTCCC
DNA 2: TGGTGGCTACGACGGGATT
B2: CCGGCAA (DNA:RNA)
RNA: B1 RNA with U25C, U26C, C27G, C30A, G31A
DNA 1: CAATCTGAATTCCGGTCTCCC
DNA 2: TGGTGGCTACGACGGGATT
B3: AACCGAG (DNA:RNA)
RNA: B1 RNA with U25A, U26A, G28C, C29G, C30A
DNA 1: CAATCTGAATTCCGGTCTCCC
DNA 2: TGGTGGCTACGACGGGATT
B4: GCAAAGG (DNA:RNA)
RNA: B1 RNA with U25G, U26C, C27A, G28A, C29A, C30G
DNA 1: CAATCTGAATTCCGGTCTCCC
DNA 2: TGGTGGCTACGACGGGATT
B5: AGUCUCG (DNA:RNA)
RNA: B1 RNA with U25A, U26G, C27U, G28C, C29U
DNA 1: CAATCTGAATTCCGGTCTCCC
DNA 2: TGGTGGCTACGACGGGATT
B6: AGUAGCG (DNA:RNA)
RNA: B1 RNA with U25A, U26G, C27U, G28A, C29G
DNA 1: CAATCTGAATTCCGGTCTCCC
DNA 2: TGGTGGCTACGACGGGATT
B7: AAGCCAU (DNA:RNA)
RNA: B1 RNA with U25A, U26A, C27G, G28C, C30A, G31U
DNA 1: CAATCTGAATTCCGGTCTCCC
DNA 2: TGGTGGCTACGACGGGATT
B8: UCGGCAG (DNA:RNA)
RNA: B1 RNA with U26C, C27G, C30A
DNA 1: CAATCTGAATTCCGGTCTCCC
DNA 2: TGGTGGCTACGACGGGATT
B9: UUUCCCG (DNA:RNA)
RNA: B1 RNA with C27U, G28C
DNA 1: CAATCTGAATTCCGGTCTCCC
DNA 2: TGGTGGCTACGACGGGATT
B10: AUCCGCC (DNA:RNA)
RNA: B1 RNA with U25A, G28C, C29G, G31C
DNA 1: CAATCTGAATTCCGGTCTCCC
DNA 2: TGGTGGCTACGACGGGATT
B11: UAAGUGG (DNA:RNA)
RNA: B1 RNA with U26A, C27A, C29U, C30G
DNA 1: CAATCTGAATTCCGGTCTCCC
DNA 2: TGGTGGCTACGACGGGATT
B12: AGCAUCA (DNA:RNA)
RNA: B1 RNA with U25A, U26G, G28A, C29U, G31A
DNA 1: CAATCTGAATTCCGGTCTCCC
DNA 2: TGGTGGCTACGACGGGATT
B13: CUGAUGA (DNA:RNA)
RNA: B1 RNA with U25C, C27G, G28A, C29U, C30G, G31A
DNA 1: CAATCTGAATTCCGGTCTCCC
DNA 2: TGGTGGCTACGACGGGATT
B14: GCAAGCC (DNA:RNA)
RNA: B1 RNA with U25G, U26C, C27A, G28A, C29G, G31C
DNA 1: CAATCTGAATTCCGGTCTCCC
DNA 2: TGGTGGCTACGACGGGATT
B15: GCAUAUG (DNA:RNA)
RNA: B1 RNA with U25G, U26C, C27A, G28U, C29A, C30U
DNA 1: CAATCTGAATTCCGGTCTCCC
DNA 2: TGGTGGCTACGACGGGATT
B16: UUUGAUA (DNA:RNA)
RNA: B1 RNA with C27U, C29A, C30U, G31A
DNA 1: CAATCTGAATTCCGGTCTCCC
DNA 2: TGGTGGCTACGACGGGATT
B17: GUUAUAG (DNA:RNA)
RNA: B1 RNA with U25G, C27U, G28A, C29U, C30A
DNA 1: CAATCTGAATTCCGGTCTCCC
DNA 2: TGGTGGCTACGACGGGATT
B18: GGACGCA (DNA:RNA)
RNA: B1 RNA with U25G, U26G, C27A, G28C, C29G, G31A
DNA 1: CAATCTGAATTCCGGTCTCCC
DNA 2: TGGTGGCTACGACGGGATT
B19: CCUGGAA (DNA:RNA)
RNA: B1 RNA with U25C, U26C, C27U, C29G, C30A, G31A
DNA 1: CAATCTGAATTCCGGTCTCCC
DNA 2: TGGTGGCTACGACGGGATT
B20: GAGCGUU (DNA:RNA)
RNA: GGGAGACCGGAAUUCAGAUUGUCCGAGCGUUUUAAAUCCCGUCGUAGCCACCA
DNA 1: CAATCTGAATTCCGGTCTCCC
DNA 2: TGGTGGCTACGACGGGATT
B21: CUUCUGC (DNA:RNA)
RNA: B20 RNA with G25C, A26U, G27U, G29U, U30G, U31C
DNA 1: CAATCTGAATTCCGGTCTCCC
DNA 2: TGGTGGCTACGACGGGATT
B22: AUAUUAA (DNA:RNA)
RNA: B1 RNA with U25A, C27A, G28U, C29U, C30A, G31A
DNA 1: CAATCTGAATTCCGGTCTCCC
DNA 2: TGGTGGCTACGACGGGATT
B23: UUAUACC (DNA:RNA)
RNA: B1 RNA with C27A, G28U, C29A, G31C
DNA 1: CAATCTGAATTCCGGTCTCCC
DNA 2: TGGTGGCTACGACGGGATT
B24: UACCCGG (DNA:RNA)
RNA: B1 RNA with U26A, G28C, C30G
DNA 1: CAATCTGAATTCCGGTCTCCC
DNA 2: TGGTGGCTACGACGGGATT
B25: UUGGCAC (DNA:RNA)
RNA: B1 RNA with C27G, C30A, G31C
DNA 1: CAATCTGAATTCCGGTCTCCC
DNA 2: TGGTGGCTACGACGGGATT
B26: GAACAUU (DNA:RNA)
RNA: B20 RNA with G27A, G29A
DNA 1: CAATCTGAATTCCGGTCTCCC
DNA 2: TGGTGGCTACGACGGGATT
B27: CCGAGGU (DNA:RNA)
RNA: B20 RNA with G25C, A26C, C28A, U30G
DNA 1: CAATCTGAATTCCGGTCTCCC
DNA 2: TGGTGGCTACGACGGGATT
B28: AAAUCAA (DNA:RNA)
RNA: B20 RNA with G25A, G27A, C28U, G29C, U30A, U31A
DNA 1: CAATCTGAATTCCGGTCTCCC
DNA 2: TGGTGGCTACGACGGGATT
B29: GGGGUCG (DNA:RNA)
RNA: B1 RNA with U25G, U26G, C27G, C29U
DNA 1: CAATCTGAATTCCGGTCTCCC
DNA 2: TGGTGGCTACGACGGGATT
B30: AACAGGG (DNA:RNA)
RNA: B20 RNA with G25A, G27C, C28A, U30G, U31G
DNA 1: CAATCTGAATTCCGGTCTCCC
DNA 2: TGGTGGCTACGACGGGATT
B31: GUCACAU (DNA:RNA)
RNA: B1 RNA with U25G, G28A, C30A, G31U
DNA 1: CAATCTGAATTCCGGTCTCCC
DNA 2: TGGTGGCTACGACGGGATT

biological target: T1, RBFOX1 RRM RbFoxmut (Fox-RRM*); experiment: EMSA; HiTS-Eq, 1 nM pool, 10 min; buffer printed only for the single-RNA assays: 10 mM Tris pH 7.5, 150 mM NaCl, 3.4 mM EDTA, 0.001% NP-40, 30 C; conditions: tags: His6 N-terminal (pET28a); label: 5' 32P
Method in brief: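 Relative association constants, normalised to the cognate motif, were derived by comparing read counts of each RNA species with those of the control reaction. The RNA sequenced was the free fraction, separated by 8% native PAGE after a 10 min equilibration in 50 µL of 1 nM 5′-radiolabelled RNA (7 randomized nucleotides) with increasing concentrations of purified wild-type or mutant RbFox RRM.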

| Binder | binding signal |
| --- | --- |
| B1 | 0.0946 KA relative to UGCAUGU |
| B2 | 0.0698 KA relative to UGCAUGU |
| B3 | 0.0834 KA relative to UGCAUGU |
| B4 | 0.0716 KA relative to UGCAUGU |
| B5 | 0.197 KA relative to UGCAUGU |
| B6 | 0.12 KA relative to UGCAUGU |
| B7 | 0.0896 KA relative to UGCAUGU |
| B8 | 0.0804 KA relative to UGCAUGU |
| B9 | 0.101 KA relative to UGCAUGU |
| B10 | 0.107 KA relative to UGCAUGU |
| B11 | 0.102 KA relative to UGCAUGU |
| B12 | 0.233 KA relative to UGCAUGU |
| B13 | 0.0926 KA relative to UGCAUGU |
| B14 | 0.0526 KA relative to UGCAUGU |
| B15 | 0.197 KA relative to UGCAUGU |
| B16 | 0.0954 KA relative to UGCAUGU |

| Binder | binding signal |
| --- | --- |
| B17 | 0.151 KA relative to UGCAUGU |
| B18 | 0.12 KA relative to UGCAUGU |
| B19 | 0.15 KA relative to UGCAUGU |
| B20 | 0.0902 KA relative to UGCAUGU |
| B21 | 0.103 KA relative to UGCAUGU |
| B22 | 0.145 KA relative to UGCAUGU |
| B23 | 0.0905 KA relative to UGCAUGU |
| B24 | 0.0588 KA relative to UGCAUGU |
| B25 | 0.095 KA relative to UGCAUGU |
| B26 | 0.0738 KA relative to UGCAUGU |
| B27 | 0.0981 KA relative to UGCAUGU |
| B28 | 0.0761 KA relative to UGCAUGU |
| B29 | 0.357 KA relative to UGCAUGU |
| B30 | 0.0834 KA relative to UGCAUGU |
| B31 | 0.0871 KA relative to UGCAUGU |
